Test results as given in PubChem BioAssay AID493208 (National Center for Advancing Translational Sciences (NCATS), 2011).
Among all 44,000 compounds or so, about 340 (0.77%) were called active. Inconclusive results (about 5%) are left out. The call rests on the fitted dose curve; in most records, active means well fitted inhibition curve with a large enough effect; inconclusive means small, poorly fitted or top-dose-only effect; inactive means flat fitted curve, though single readings scatter. The list shows a part of the results.

Assay: Acumen qHTS Assay for Inhibitors of the mTORC1 Signaling Pathway in MEF (Tsc2-/-, p53-/-) Cells: Sytravon;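 further: plate controls were DMSO for no effect and rapamycin for full effect; nearly all actives have a fitted effect of over 50% in size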
Conditions: phospho-rpS6 immunofluorescence/PI, 24 h; series mostly up to 38.3 µM; activity change, negative = inhibition: at the top concentration
Method in brief: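 Immunofluorescence of rpS6 phosphorylation in Tsc2-/-, p53-/- MEFs after 24 h compound exposure, normalized to propidium iodide signal. Activity is expressed as % positive cells, thresholded with 7.5 nM rapamycin.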

Activity change, negative = inhibition, inactive:
CCOC(=O)C1CCN(C(c2cccc(F)c2)c2c(O)cc(C)n(Cc3ccco3)c2=O)CC1 (stereo unspecified) -8.57%
O=C(c1ccc(Br)cc1)N1CCN(CCc2ccncc2)CC1 -8.78%
Cn1nc(-c2ccccc2F)c2cc(C(=O)NCCc3ccc(Cl)cc3)sc21 -13.1%
CCOc1cccc(C(=O)N2CCC(c3nc4ccccc4s3)CC2)c1 -11.8%
COc1ccc(-c2noc(N(c3cccc(Cl)c3)c3nc(-c4ccc(OC)c(OC)c4)no3)n2)cc1OC -10.4%
CC(=O)c1ccc(NC(=O)CSc2ccc(-c3cccs3)nn2)cc1 -15.1%
CN(C)c1ccc(CNC(=O)c2cnc3sc(N4CCOCC4)nn3c2=O)cc1 3.4%
Brc1cccc(-c2nnc(CN3CCN(c4ccccn4)CC3)o2)c1 -4.4%
Cc1ccc(S(=O)(=O)Cc2ccc(C(=O)NCCc3ccc(Cl)cc3)o2)cc1 -1.76%
COC(=O)C1=C(C)NC(=O)C1(NC(=O)c1cc(OC)c(OC)c(OC)c1)C(F)(F)F (stereo unspecified) 3.03%
Cc1cc(C)nc(NC(=NCCc2c[nH]c3ccc(Cl)cc23)NC(=O)c2ccccc2C)n1 -28.3%
Cc1cccc(-n2cc(-c3ccccc3)c3c(NC4CCCC4)ncnc32)c1 -19.5%
C=Cc1ccc(Cn2nc(-c3ccc(C)cc3)ccc2=O)cc1 -14.6%
CCOC(=O)c1cc(C)n(CC2CCC(C(=O)Nc3cccc(C)c3)CC2)c1C (stereo unspecified) -12%
O=C(NC1CCCCC1)c1ccc(CSc2nc3cccnc3n2Cc2ccc(F)cc2)cc1 0.199%
COc1ccc(OC)c(NC(=O)C2CCN(S(=O)(=O)c3ccc4c(c3)CCCC(=O)N4)CC2)c1 -6.04%
CCOC(=O)c1ccc(NC(=O)CCC(=O)N2Cc3ccccc3Oc3ncccc32)cc1 -1.61%
CCOC(=O)c1c(S(=O)(=O)N2CCCC(C(=O)Nc3cc(C)ccn3)C2)c(C)n(C)c1C (stereo unspecified) 4.75%
O=C(CN1C(=O)COc2ccc(S(=O)(=O)N3CCCC3)cc21)N1CCN(c2ccc(F)cc2)CC1 -9.98%
O=C1CC(c2nnc(Cc3ccc(F)cc3Cl)o2)CN1c1ccccc1 (stereo unspecified) -9.59%
O=C1c2[nH]nc(-c3ccccc3O)c2C(c2ccccc2F)N1Cc1cccnc1 (stereo unspecified) -1.61%
Cc1cccc(-n2c(Cc3ccccc3)nnc2SCc2nc(-c3cccs3)no2)c1 3.7%
Cc1cccc(Nc2nnc(-c3ccc(C)c(S(=O)(=O)NCC4CCCO4)c3)c3ccccc23)c1 (stereo unspecified) -20.3%
COCCNc1ccc(-c2nc(-c3ccco3)no2)cc1[N+](=O)[O-] -12%
COC(=O)c1ccc(NC(=O)CN2C(=O)CCc3cc(S(=O)(=O)N4CCCCC4)ccc32)cc1 0.148%
COc1ccc(S(=O)(=O)NCC(c2ccco2)N2CCN(c3ccccc3)CC2)cc1OC (stereo unspecified) -7.1%
O=C(O)CCn1c(=O)c2cccn2c2cccnc21 -0.133%
Cc1[nH]c(=O)[nH]c(=O)c1S(=O)(=O)N1CCN(c2ccccc2Cl)CC1 -0.855%
CCc1ccccc1Nc1nn2c(=O)c3ccc(C(=O)NC(C)c4ccccc4)cc3nc2s1 (stereo unspecified) -4.18%
CCc1ccc(NC(=O)CC2C(=O)N(c3ccc(Cl)cc3)C(=O)N2Cc2ccco2)cc1 (stereo unspecified) -7.33%
COc1cc2[nH]c(=O)n(CCCC(=O)NCc3ccc(Cl)cc3)c(=O)c2cc1OC 4.27%
Cc1ccc(NC(=O)C(=O)NCC(c2cccnc2)N2CCN(c3ccccc3F)CC2)cc1Cl (stereo unspecified) -4.46%
CCOc1cc2[nH]c(=O)n(CCCCC(=O)N3CCN(c4cccc(Cl)c4)CC3)c(=O)c2cc1OCC -1.15%
Cc1cccc2sc(N(Cc3cccnc3)C(=O)c3cccs3)nc12 -2.1%
CCc1ccc(CN2CCc3nc(Nc4ccccc4)ncc3C2)cc1 0%
CC(=O)Nc1ccc(NC(=O)c2cc3sccc3n2Cc2ccc(F)cc2)cc1 -9.15%
CCOC(=O)c1c(C)[nH]c(CCC(=O)NCc2ccc(F)cc2)c1C 12%
Cc1cccc(N2CCN(S(=O)(=O)c3ccc(-c4cc(C(F)(F)F)on4)s3)CC2)c1C 6.08%
Cc1ccccc1OCC(=O)Nc1ccc2nc(SCC(=O)N3CCc4ccccc43)sc2c1 -1.45%
O=C(C1CCCN(S(=O)(=O)c2ccc(Br)s2)C1)N1CCN(c2cccc(Cl)c2)CC1 (stereo unspecified) -5.3%
COc1cccc(C2C(C(=O)Nc3ccc(Cl)cc3)=C(C)Nc3nc4ccccc4n32)c1 (stereo unspecified) -4.61%
COc1ccccc1C1Nc2c(sc3nc(C)cc(C)c23)C(=O)N1c1ccccc1 (stereo unspecified) -0.462%
Cc1ccc(CNc2ncnc3c2cnn3-c2ccc(Cl)cc2)cc1 -0.546%
COc1cccc(CC(=O)Nc2ccc(-c3nc4ccccc4s3)cc2)c1 -0.723%
COc1ccc(Cl)cc1NC(=O)c1nnn(Cc2cccc(C(F)(F)F)c2)c1N -7.44%
COc1ccc2c(c1)c1c(c(=O)n(-c3ccc(C)cc3)c(=O)n1CC(=O)NCc1ccc(C)cc1)n2C -0.939%
COc1ccc(OCC(=O)Nc2cc(-c3nc4ccccc4s3)ccc2C)cc1 9.62%
Cc1cc2c(cc1C)NC(CC(=O)Nc1cccc(Cl)c1)C(=O)N2 (stereo unspecified) 8.8%
NS(=O)(=O)c1ccc(CCNC(=O)Cn2c(-c3cccs3)cc3ccccc32)cc1 -13.2%
C=CCc1cccc2cc(C(=O)NCCc3c(C)[nH]c4c(C)cccc34)c(=O)oc12 -2.1%
O=C(NCC(c1ccc2c(c1)OCO2)N1CCOCC1)C(=O)Nc1ccccc1 (stereo unspecified) -5.8%
CCN(CC)c1ccc(NC(=O)CCc2nc3cccnc3n2Cc2cccs2)c(C)c1 0.305%
CNc1ccc(-c2nc(-c3ccco3)no2)cc1[N+](=O)[O-] 0.82%
Cc1ccccc1NC(=O)c1ccc2c(O)c(S(=O)(=O)c3ccccc3)c(=O)[nH]c2c1 -2.15%
CCOC(=O)N1CCC(NC(=O)c2cnn(-c3ccc(F)cc3F)c2C2CCN(C(=O)OC(C)(C)C)CC2)CC1 6.8%
COc1ccc(CCNC(=O)c2c(C)oc3ncnc(N4CCOCC4)c23)c(OC)c1 4.06%
Cc1ccc(S(=O)(=O)Nc2cc3c(cc2C)n(C)c(=O)c(=O)n3C)c(C)c1 -0.856%
Cn1nnnc1SCCCNCc1ccc(-c2ccc(F)c(Cl)c2)o1 -3.74%
CCc1nc(-c2cc(S(=O)(=O)N3CCN(c4ccccc4F)CC3)ccc2OC)no1 0.122%
CCCN1C(C(=O)c2ccccc2)=C(OC(=O)c2ccc(OC)cc2)c2ccccc2S1(=O)=O 1.13%
O=C(Cn1c(=O)c(C(F)(F)F)nc2ccccc21)Nc1cccc(Br)c1 -13.4%
Cc1ccc(CNC(=O)C2CCCN(S(=O)(=O)c3cn(C)cn3)C2)cc1 (stereo unspecified) 0%
O=C(NCCc1ccccc1)c1ccc(CS(=O)(=O)Cc2ccccc2Cl)o1 3.92%
CCc1ccc(NC(=O)CN2C(=O)CCSc3ccccc32)cc1 -6.36%
Cc1cc(=O)n(CC(=O)NCc2ccc(OC(C)C)cc2)c2c1c(C)nn2-c1cccc(F)c1 4.96%
Cc1cc(C)cc(NS(=O)(=O)c2ccc(N3CCCCS3(=O)=O)cc2)c1 0%
Cc1ccc(NC(=O)C(C)Sc2nc(-c3ccccc3)c(C#N)c(=O)[nH]2)c(C)c1 (stereo unspecified) 0.507%
O=C(Nc1nnc(S(=O)(=O)N2CCOCC2)s1)c1ccccc1F -15.4%
CC(C)Cc1nn2c(=O)cc(COC(=O)c3ccc(NC(=O)CCc4ccccc4)cc3)nc2s1 2.82%
O=c1c(N2CCc3ccccc3C2)csc2ccc(Cl)cc12 0.473%
CC(C)c1cnc2c(c1SCC(=O)N1CCCCC1)c(=O)n(C)c(=O)n2C 0%
COc1ccc(Nc2c(-c3ccc(N4CCOCC4)cc3)nc3ncccn23)cc1OC -5.84%
CCOc1cc(CN2CCN(S(=O)(=O)c3ccc(C)cc3)CC2)ccc1OC 1.92%
COc1ccc(/C=C/C(=O)Nc2sc(C)c(C)c2C(=O)O)cc1 -0.404%
CCc1ccc2c(c1)NC(c1ccc(C)cc1)=NC(c1cccs1)=N2 -3.13%
CCOC(=O)N1CCc2c(sc3c2c(=O)n(Cc2ccccc2)c(=O)n3CC(=O)Nc2ccc(C)cc2C)C1 -19.3%
CCn1c(=O)sc2cc(NS(=O)(=O)c3ccc(C)cc3)ccc21 -3.84%
CC(=O)Nc1ccc(NC(=O)c2ccc3c(c2)NC(=O)c2ccccc2S3)cc1 -0.825%
CCc1ccccc1N(C)C(=O)c1cn(-c2cccc(OC)c2)c(=O)c2ccccc12 1.6%
O=C(Nc1ccc(F)cc1F)C1CCN(S(=O)(=O)c2ccc3[nH]c(=O)ccc3c2)CC1 -3.1%
CCc1ccc(NC(=O)Cn2nnc(C(=O)NCc3ccc(C)cc3)c2N)cc1 0.786%
COc1cc(NC(=O)CCc2nc3cccnc3n2Cc2cccs2)cc(OC)c1OC 0.744%
CC1(C(=O)NC2CCCCC2)Cc2ccccc2C(=O)N1Cc1ccccc1Cl (stereo unspecified) -8.95%
CCc1ccc(OCc2nc(-c3ccc(OC)c(OC)c3)no2)c(Br)c1 3.71%
O=C(CCc1nc2cccnc2n1-c1ccccc1)Nc1ccc(Cl)c(Cl)c1 6.01%
CC(=O)c1ccc(N2C(=O)N(Cc3ccccc3C#N)c3ccccc3S2(=O)=O)cc1 0.323%
CCOc1ccc(C(=O)NCC(c2ccc3c(c2)OCO3)N2CCOCC2)cc1 (stereo unspecified) -2.29%
COc1cc(-c2noc(-c3ccc(NCc4ccco4)c([N+](=O)[O-])c3)n2)cc(OC)c1OC -0.294%
Cc1c(C(=O)Nc2ccc(F)c(Cl)c2)oc2ccc(S(=O)(=O)N(C)C3CCCCC3)cc12 4.65%
Cc1ccc(-n2ncc(C(=O)Nc3ccc4c(c3)OCO4)c2C2CCN(C(=O)OC(C)(C)C)CC2)c(C)c1 0.45%
CCOC(=O)c1nc(Nc2ccccc2OC)c2ccccc2n1 -16.8%
Cc1cn2c(=O)cc(COc3ccc(NC(=O)c4ccccc4C)cc3)nc2s1 -15.3%
CCCOc1ccc(-c2nc(N3CCCCC3)c3ccccc3n2)cc1 8.6%
Cc1nn(C)c2c1c(C(F)(F)F)cc(=O)n2CC(=O)N1CCCCC1C (stereo unspecified) -1.56%
CCCCN(CC)C(=O)c1cc2c(=O)n3ccccc3nc2n1C -0.958%
COc1cc2[nH]c(=O)n(Cc3ccc(C(=O)N4CCN(c5cc(Cl)ccc5C)CC4)cc3)c(=O)c2cc1OC -23.1%
